The whole screen tested about 220,000 compounds, of which about 16,000 (7.3%) were called active. The shares of active, inactive and inconclusive entries below differ from those in the screen. Calls come from the whole dose curve; as a rule, active = well fitted inhibition curve with a large enough effect (not every such curve was filed as active); inconclusive = small, poorly fitted or top-dose-only effect, or another doubt; inactive = no such curve, though single readings can be large or run the other way. No potency is given beside an inconclusive call; the fits are too rough.
What follows are compounds tested against Aldehyde dehydrogenase 1A1 (Homo sapiens) (UniProt P00352) (assay: qHTS Assay for Inhibitors of Aldehyde Dehydrogenase 1 (ALDH1A1)). Settings: Purified ALDH1A1, NADH fluorescence, propionaldehyde substrate; series mostly up to 75.3 µM.
Chain of UniProt P00352 (P00352 whole entry, looked up): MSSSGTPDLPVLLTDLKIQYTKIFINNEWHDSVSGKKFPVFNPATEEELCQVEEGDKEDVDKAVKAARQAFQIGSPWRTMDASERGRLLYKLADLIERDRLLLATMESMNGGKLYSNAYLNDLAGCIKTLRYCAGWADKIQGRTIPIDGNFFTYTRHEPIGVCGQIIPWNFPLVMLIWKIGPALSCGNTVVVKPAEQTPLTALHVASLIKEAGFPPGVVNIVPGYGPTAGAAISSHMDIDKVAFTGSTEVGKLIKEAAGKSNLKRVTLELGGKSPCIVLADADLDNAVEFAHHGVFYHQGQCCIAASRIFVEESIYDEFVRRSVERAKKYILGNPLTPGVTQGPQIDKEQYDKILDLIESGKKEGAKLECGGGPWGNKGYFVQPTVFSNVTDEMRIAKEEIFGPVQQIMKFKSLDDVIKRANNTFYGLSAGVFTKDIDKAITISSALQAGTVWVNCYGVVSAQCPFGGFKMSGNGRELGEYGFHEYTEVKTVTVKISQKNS
In the case of `COc1cc(OC)c(S(=O)(=O)N2CCCCC2)cc1S(=O)(=O)N1CCCCC1`, the Potency is reported as active: 3.55 µM.
`O=C(OCc1nc2ccc(Cl)cc2n1CCO)c1ccc2c(c1)OCO2` was tested, and the Potency was inconclusive [inhibitor, partial curve].
In the case of `COc1cccc(/C=N/n2c(C)nc3ccccc32)c1OC`, the Potency is reported as inconclusive [inhibitor, single point].
For `COc1cc(/C=c2\sc3n(c2=O)CCCN=3)ccc1O`, the Potency was inconclusive [inhibitor, partial curve].
With `Cc1csc(-c2nc3ccccc3n2C)n1` the Potency was inconclusive [inhibitor, partial curve].
`Cc1ccc(O)c(C2=Nc3ccccc3N=C(c3cccs3)C2)c1` was tested, and the Potency was “inactive”.
`Cc1cc(=O)n2nc(N3CCCC(C(=O)NCCC4=CCCCC4)C3)sc2n1` (stereo unspecified) was tested, and the Potency was inconclusive [inhibitor, partial curve].
For `O=C(NCCc1ccccc1)C1c2ccccc2C(=O)N1Cc1cccs1` (stereo unspecified), the Potency was active: 12.6 µM.
For `Nc1[nH]c(=S)[nH]c(=O)c1N=Nc1c(Br)cc(S(N)(=O)=O)cc1Br`, the activity, negative = inhibition was inactive: -1.29% [at 13.5 µM].
In the case of `c1ccc(-c2cnc(CSc3ncnc4sccc34)o2)cc1`, the Potency is reported as “inactive”.
For `COC1CCCCC1Nc1cc(C)ccc1C` (stereo unspecified), the Potency was inconclusive [inhibitor, single point].
In the case of `Cc1ccc(Nc2n[nH]c(C)c2[N+](=O)[O-])cc1C`, the Potency is reported as inconclusive [inhibitor, single point].
`Cc1ccc(/C=N/NC(=O)c2ccc(Cn3cc([N+](=O)[O-])cn3)o2)cc1` was tested, and the Potency was “inactive”.
`CC1Oc2ccccc2C=C1/C=C1/SC(N2CCOCC2)=NC1=O` (stereo unspecified) was tested, and the Potency was inconclusive [inhibitor, partial curve].
`CCOC(=O)c1sc(-c2ccccc2)cc1NC(=O)Nc1ccccc1` was tested, and the Potency was inconclusive [inhibitor, single point].
In the case of `CC1(C)NC(=O)N(CC(=O)OCc2cc(=O)n3cc(Br)ccc3n2)C1=O`, the Potency is reported as inconclusive [inhibitor, partial curve].
In the case of `CC1=NN(c2ccc(Cl)c(C(=O)O)c2)C(=O)C1`, the Potency is reported as “inactive”.
In the case of `CC1CCCN(S(=O)(=O)c2cccc(-c3cn4cccnc4n3)c2)C1` (stereo unspecified), the Potency is reported as inconclusive [inhibitor, partial curve].
In the case of `O=C(Nc1ccc2nn(-c3ccccc3)nc2c1)c1cccs1`, the Potency is reported as inconclusive [inhibitor, single point].
`CC(C)(C)c1cnnn1-c1ccc(/C=N/Nc2ccc([N+](=O)[O-])cc2)cc1` was tested, and the Potency was inconclusive [inhibitor, single point].
For `COc1ccc(NC(=O)COc2ccc(C)cc2)c([N+](=O)[O-])c1`, the Potency was “inactive”.
For `COc1ccc(NC(=O)C(c2cc3c(cc2[N+](=O)[O-])OCO3)N(C)c2ccccc2)cc1` (stereo unspecified), the Potency was inconclusive [inhibitor, single point].
`Cc1ccc(C(=O)/C=C/c2c[nH]c3ccccc23)cc1` was tested, and the Potency was active: 25.1 µM.
In the case of `Cc1ccc(SCc2cc(=O)[nH]c(/N=C(\N)Nc3ccc(C)c(C)c3)n2)cc1`, the Potency is reported as active: 8.91 µM.
`CC(C)c1ccc(NC(=O)C[n+]2ccn(C3=C([O-])c4ccccc4C3=O)c2)cc1` was tested, and the Potency was inconclusive [inhibitor, single point].
In the case of `O=C(O)c1cc2c(cc1S(=O)(=O)O)[C@H]1[C@@H](C3[C@H]2[C@@]2(Cl)C(Cl)=C(Cl)C3(Cl)C2(Cl)Cl)[C@]2(Cl)C(Cl)=C(Cl)C1(Cl)C2(Cl)Cl` (stereo partly specified), the activity, negative = inhibition is reported as inactive: -11.4% [at 13.5 µM].
`COCC(=O)N1CCC2(CC1)CN(C(=O)Nc1cccc(F)c1)C2` was tested, and the Potency was “inactive”.
In the case of `CC(=O)Oc1cccc(N2C(=O)C3C4C=CC(C4=C(C)C)C3C2=O)c1` (stereo unspecified), the Potency is reported as active: 7.08 µM.
With `COc1ccc(/C=C/C(=O)NC(=S)NN2CCCCC2c2cccnc2)cc1OC` (stereo unspecified) the Potency was inconclusive [inhibitor, single point].
`CCOC(=O)N1C/C(=C\c2ccccc2)C(=O)/C(=C/c2ccccc2)C1` was tested, and the Potency was inconclusive [inhibitor, single point].
In the case of `CN(C)c1ccc(C(=O)OCC(=O)N2CCOCC2)cc1`, the Potency is reported as inconclusive [inhibitor, single point].
For `COC(=O)N1C(c2ccccc2)=Cc2ccccc2C1C1(C(=O)OC)CCCC1=O` (stereo unspecified), the Potency was “inactive”.
`CCCCC(=O)Nc1nn(CC(C)C)c2nc3ccccc3cc12` was tested, and the Potency was inconclusive [inhibitor, partial curve].
With `CCOC(=O)c1sc(NCC2CCCO2)nc1C` (stereo unspecified) the Potency was “inactive”.
`CCN(CC)S(=O)(=O)c1ccc(C)c(NC(=O)CN2CCN(C)CC2)c1` was tested, and the Potency was inconclusive [inhibitor, single point].
In the case of `COc1ccc(OCCn2cc(/C=C(\C#N)C(=O)NCc3ccco3)c3ccccc32)cc1`, the Potency is reported as “inactive”.
With `CCOCC(=O)Nc1nc2ccc(OC)cc2s1` the Potency was active: 17.8 µM.
With `N#Cc1cnc2c(-c3ccccc3)c(-c3ccccc3)nn2c1N` the Potency was inconclusive [inhibitor, partial curve].
For `CC1CCCN(CCOCCOc2ccccc2-c2ccccc2)C1` (stereo unspecified), the Potency was “inactive”.
`CCCOC(=O)c1ccc(NC(=O)CCOc2ccccc2)cc1` was tested, and the Potency was active: 14.1 µM.
With `O=C1C2=C(SCCS2)C(=O)N1CCCO` the Potency was inconclusive [inhibitor, single point].
With `Brc1ccc(-c2nc(-c3cccnc3)no2)o1` the Potency was inconclusive [inhibitor, partial curve].
With `COCCn1c(=O)[nH]c2cc(C(=O)Nc3cccc(F)c3)ccc2c1=O` the Potency was inconclusive [inhibitor, partial curve].
In the case of `COc1ccc(O[C@H]2C=C[C@@H](c3ccccc3)O[C@H]2COC(=O)NCc2cccc3ccccc23)cc1`, the activity, negative = inhibition is reported as inactive: 5.51% [at 13.5 µM].
With `COc1ccc(C2=NN(Cc3c(F)cccc3Cl)C(=O)CC2)cc1` the Potency was inconclusive [inhibitor, single point].
In the case of `Cc1[nH]nc2c1C(c1cccs1)C1=C(CCCC1=O)N2` (stereo unspecified), the Potency is reported as inconclusive [inhibitor, single point].

— PubChem BioAssay AID1030 (National Center for Advancing Translational Sciences (NCATS), 2008)
Potency is the fitted concentration of half-maximal effect; tags give direction and shape of the fitted curve.
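Throughout, for activity, negative = inhibition: plate controls were no enzyme wells and a reference inhibitor.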
